About 200 (0.47%) of roughly 43,000 compounds were called active. Another 12% or so got no clear call; they are omitted. Calls come from the whole dose curve; as a rule, active = well fitted cell-killing curve with a large enough effect; inconclusive = small, poorly fitted or top-dose-only effect, or effect the other way; inactive = flat fitted curve, though single readings scatter. This is one part of the list.
Experiment: Cell viability qHTS assay in S16 Pmp22-F2sN cells; note: nearly all actives have a fitted effect of over 65% in size
Settings: S16 Pmp22-F2sN Schwann cells viability, CellTiter-Glo, 24 h; series mostly up to 57.5 µM; activity change, negative = cytotoxicity: at the top concentration
Summary of the method: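 Viability was measured by CellTiter-Glo luminescence (15 min, room temperature). This followed 24 h at 37 °C of compound exposure (23 nL pin transfer) in S16 Pmp22-F2sN Schwann cells, 500-1,000 per well.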
% is set by controls: 0 for no effect and ±100 for the full control effect.

Compound	activity change, negative = cytotoxicity
COC(=O)c1ccc(NC(=O)CSc2nc3c(c(=O)n(C)c(=O)n3C)n2Cc2ccccc2)cc1	inactive: 2.99%
COc1ccc(C(=O)NCc2nnc(SCC(=O)Nc3ccc(F)cc3)n2-c2ccccc2)cc1	inactive: 16.1%
COc1ccc(Cl)cc1NC(=O)c1c(NCc2cccs2)sc2c1CCCC2	inactive: -3.07%
Cc1cccc(-n2ncc(C(=O)Nc3ccc4c(c3)OCO4)c2C2CCN(C(=O)OC(C)(C)C)CC2)c1	inactive: -13.8%
Cc1ccc(S(=O)(=O)Nc2c(C)nc3nc(C)[nH]n3c2=O)c(C)c1	inactive: -6.78%
COc1ccccc1Cc1nc2ccccc2nc1SCC(=O)N1CCCc2ccccc21	inactive: 3.09%
Cc1ccccc1-c1noc(-c2cc(C(C)C)[nH]n2)n1	inactive: -25.1%
CC(=O)N1CCc2cc(S(=O)(=O)CCC(=O)N3CCN(c4ccccc4F)CC3)ccc21	inactive: 3.71%
Cc1oc2ncn(CC(C)C)c(=O)c2c1C(=O)N(Cc1ccccc1)C(C)C	inactive: 12.5%
Cc1nc2nc(C(F)(F)F)[nH]n2c(=O)c1Cc1ccccc1	inactive: -15.5%
CC1Cn2cc(C(=O)Nc3ccccc3C(F)(F)F)c(=O)c3c(Cl)ccc(c32)O1 (configuration not stated)	inactive: 8.28%
CC(C)Oc1ccc(C(=O)Nc2nc3c(s2)CC(C(C)(C)C)CC3)cc1 (configuration not stated)	inactive: -3.1%
O=C(NCC(c1ccc2c(c1)OCO2)N1CCN(c2ccccc2)CC1)c1ccccc1 (configuration not stated)	inactive: -0.801%
O=C(CN1C(=O)C2(SCC(=O)N2c2ccc(Cl)cc2)c2ccccc21)NCCc1ccccc1 (configuration not stated)	inactive: -2.97%
Cc1ccc(O)c(NC(=O)CCSc2nc(-c3ccco3)cc(C(F)(F)F)n2)c1	inactive: -1%
COc1ccc(Cl)cc1NS(=O)(=O)c1c(C)[nH]c(=O)[nH]c1=O	inactive: 5.6%
CCOc1ccccc1NC(=O)c1c(NC(=O)c2ccncc2)sc2c1CCC(C(C)(C)C)C2 (configuration not stated)	inactive: 12.2%
Cc1ccc(Cn2c(C)c3cnn(CC(=O)N4CCN(c5ccc(F)cc5)CC4)c(=O)c3c2C)cc1	inactive: -28.3%
COc1cc(OC)c(NC(=O)c2cn(C)c(=O)c3cc(OC)c(OC)cc23)cc1Cl	inactive: -6.93%
O=C(/C=C/c1ccccc1)N1CCN(Cc2cc(=O)n3nc(-c4ccccc4Cl)sc3n2)CC1	inactive: -28.7%
CC(NC(=O)c1cc(-c2ccc(Cl)cc2)on1)c1ccccc1 (configuration not stated)	inactive: -19%
CCc1cccc(NC(=O)c2cccc3c2C(=O)N(C2CCCCC2)C3)c1	inactive: -2.67%
COc1ccc(Nc2ncnc3c2nc2n3CCCC2)cc1Cl	inactive: -23.7%
O=C(NCC(c1cccnc1)N1CCc2ccccc21)C(=O)Nc1ccccc1F (configuration not stated)	inactive: -19.3%

Compound	activity change, negative = cytotoxicity
CCOC(=O)c1nnn(CC(=O)NC(=O)Nc2ccc(F)cc2)c1C(=O)OCC	inactive: 5.66%
COc1ccc(S(=O)(=O)NCC(c2ccco2)N2CCN(c3ccccc3F)CC2)cc1C (configuration not stated)	inactive: -5.48%
COc1cc(/C=C/c2nc3cc(Cl)ccc3c(=O)n2-c2ccc(C)cc2C)cc(OC)c1OC	inactive: 5.15%
CSc1ccc(NC(=O)Cn2nnnc2-c2ccccc2F)cc1	inactive: -0.707%
O=C(O)c1c2c(nc3ccc(S(=O)(=O)N4CCC(C(=O)NCc5ccc(Cl)cc5)CC4)cc13)CCCC2	inactive: 10.8%
CCOC(=O)c1c(C)oc2nc(C)nc(N3CCN(c4cccc(C)c4C)CC3)c12	inactive: 7.97%
Cc1cccc(OCCSc2nc3ccccc3n2CC(=O)N2CCOCC2)c1C	inactive: 3.94%
CCOc1ccc(S(=O)(=O)Nc2ccc(OC)c(Cl)c2)c2cccnc12	inactive: -10%
CCN1C(=O)c2ccccc2S(=O)c2ccc(C(=O)NCc3ccccc3OC)cc21 (configuration not stated)	inactive: 6.1%
CCOC(=O)N1CCN(Cc2nc3cc(NC(=O)c4ccc([N+](=O)[O-])cc4)ccc3n2C(C)C)CC1	inactive: -24.8%
Cc1ccc(NC(=O)C2CCCN(S(=O)(=O)c3c(C)nn(C)c3C)C2)c(C)c1 (configuration not stated)	inactive: 12%
O=C(NC1(C(F)(F)F)C(=O)Nc2c1c(=O)[nH]c(=O)n2-c1ccccc1)c1ccccc1 (configuration not stated)	inactive: 6.75%
CCOc1ccc(C(=O)NCc2nc3cccnc3n2Cc2cccc(OC)c2)cc1	inactive: 7.36%
CCCN(CCC)C(=O)Cn1c(SCc2cccc(C(F)(F)F)c2)nc2cccnc21	inactive: -25.8%
CCOc1ccccc1CNC(=O)c1ccc(NC(=O)N2CC(C)Sc3ccccc32)cc1 (configuration not stated)	inactive: -28.5%
COc1ccc(OC)c(CNC(=O)CN(c2ccc(C)cc2)S(=O)(=O)N(C)C)c1	inactive: 17.9%
Cc1cccc(NC(=O)N2CCN(C)c3ncccc32)c1C	inactive: -3.49%
N#Cc1ccccc1NC(=O)C(=O)NCCc1csc2nc(-c3cccc(F)c3)nn12	inactive: 7.8%
CCOC(=O)C1CCN(c2c(C(=O)c3ccc(OC)cc3)cnc3ccccc23)CC1	inactive: -6.31%
CSCC[C@@H](C(=O)Nc1cccc(F)c1)N1Cc2ccccc2C1=O	inactive: -5.3%
O=C(CSc1nccn1C1CCCC1)Nc1cccc(F)c1	inactive: 1.68%
CCOCCc1nn2c(=O)cc(COC(=O)Cc3ccccc3)nc2s1	inactive: 6.31%
CCCN(C(=O)Cn1ncc2c1-c1ccccc1OC2)c1cccc(C)c1	inactive: 12.4%
